Results: the RNAGym collection of RNA variant scans (doi:10.7554/elife.90254)
Read counts are not given, so values of variants with three or more changes are uncertain.

B1: LINE1-mini (parent)
chain: GGCAGAGCUCAACACAGCGUGGCAAAGUGGCUGUGGCUAGACUGCC

Variants of: B1
Experiment: self-cleavage, relative activity (ratio to wild type); higher = more cleavage; in vitro, sequencing; the parent is a self-cleaving ribozyme

Variant	self-cleavage
GGCAGAGCUCAACAUACCGUGGUAAAGUGGCGCUGGCUAGACUGCC [C15U G17C C23U U32G G33C]	0.01
GGCAGAGCUCAACAUACCGUGACAAAGUGGCUGUGGCUAGACUGCC [C15U G17C G22A]	0.09
GGCAGAGCUCAACAUAUCGUGGCAAAGUGGCUGUGGCUAGGCUGCC [C15U G17U A41G]	0
GGCAGAGCUCAACAUAUCUAGGCAAAGUGGCUGUGGCUAGACUGCC [C15U G17U G19U U20A]	0.26
GGCAGAGCUCAACAUAUCGUGACAAAGUGGCUGUGGCUAAACGGCC [C15U G17U G22A G40A U43G]	0.01
GGCAGAGCUCAACAUAUCGUGGCAAAGUGGCUGUUGCUAGACUGCC [C15U G17U G35U]	0.09
GGCAGAGCUCAACAUAUCGUGGCAAAGUGGCUGUGGCUAGACUAUC [C15U G17U G44A C45U]	0.02
GGCAGAGCUCAACAUAGCAUGGUACAAUGGCUGUGGCUAGACUGCC [C15U G19A C23U A25C G27A]	0.95
GGCAGAGCUCAACAUAGCAAGGCAAAGUGGCUGUGGCUAGACUGCC [C15U G19A U20A]	0.63
GGCAGAGCUCAACAUAGCAUGGCAAAGCGGCUGUGGCUAGACUGCC [C15U G19A U28C]	1.32
GGCAGAGCUCAACAUAGCUUGGCAAUGUGGCUGCGGCUAGACUGCC [C15U G19U A26U U34C]	0.33
GGCAGAGCUCAACAUAGCUUGGCAAAGUGGCUGUGGCUAGACUGAC [C15U G19U C45A]	0.39
GGCAGAGCUCAACAUAGCUAGGCAAAGUGGGUGUGGCUAGACUGCC [C15U G19U U20A C31G]	0.06
GGCAGAGCUCAACAUAGCUUGGCAAAGUGGCUGAGGCUAGACUGCC [C15U G19U U34A]	0.03
GGCAGAGCUCAACAUAGCGUAGCCAAGUGGAUGUGGCUAGAAUGCC [C15U G21A A24C C31A C42A]	0.02
GGCAGAGCUCAACAUAGCGUAGCAAAGUGGCUGAGGCUAGAUUGCC [C15U G21A U34A C42U]	0.07
GGCAGAGCUCAACAUAGCGUAGCAAAGUGGCUGUGGCUAGACAGCC [C15U G21A U43A]	0.05
GGCAGAGCUCAACAUAGCGUUGCAAAGUGGCUGUUGCUAUACUGCC [C15U G21U G35U G40U]	0.23
GGCAGAGCUCAACAUAGCGUUGCAAAGUGGCUGAGGCUAAACUGCC [C15U G21U U34A G40A]	0.04

Variant	self-cleavage
GGCAGAGCUCAACAUAGCGUGCUAACGUGGCUGUGGCUAGACUGCC [C15U G22C C23U A26C]	1.35
GGCAGAGCUCAACAUAGCGUGCCAAAGUGGCUGUGGAUAGACUGCC [C15U G22C C37A]	0.12
GGCAGAGCUCAACAUAGCGUGUCCAAUUGGCUGUGGCUAGUCUGCC [C15U G22U A24C G27U A41U]	0.19
GGCAGAGCUCAACAUAGCGUGGCAAAAUGGCAGUGGAUAGACUCCC [C15U G27A U32A C37A G44C]	0.07
GGCAGAGCUCAACAUAGCGUGGCAAAAUGGCUGUGGCCAGAGUGCC [C15U G27A U38C C42G]	0.04
GGCAGAGCUCAACAUAGCGUGGCAAACGGGCUGGGGCUAAACUGCC [C15U G27C U28G U34G G40A]	0.02
GGCAGAGCUCAACAUAGCGUGGCAAAGUAGCUAUGGCUAGACUGCC [C15U G29A G33A]	1.47
GGCAGAGCUCAACAUAGCGUGGCAAAGUAGCUGUGGCUAUAAUGCC [C15U G29A G40U C42A]	0.04
GGCAGAGCUCAACAUAGCGUGGCAAAGUCACUGUGCCUAGACUGCC [C15U G29C G30A G36C]	0.06
GGCAGAGCUCAACAUAGCGUGGCAAAGUCGCCGUGGCUAGACUGCC [C15U G29C U32C]	0.06
GGCAGAGCUCAACAUAGCGUGGCAAAGUUUCUGUGGCUAGACUGCC [C15U G29U G30U]	0.03
GGCAGAGCUCAACAUAGCGUGGCAAAGUUGCUUUGGCUAGACUGCC [C15U G29U G33U]	0.1
GGCAGAGCUCAACAUAGCGUGGCAAAGUUGCUGUUGCUAGACUGCC [C15U G29U G35U]	0.09
GGCAGAGCUCAACAUAGCGUGGCAAAGUGAUUGUGGCUGGCCUGCC [C15U G30A C31U A39G A41C]	0.02
GGCAGAGCUCAACAUAGCGUGGCAAAGUGACUGUCGCUAGACUGCC [C15U G30A G35C]	0.1
GGCAGAGCUCAACAUAGCGUGGCAAAGUGGCUCUGGCUAGACUGCG [C15U G33C C46G]	0.1
GGCAGAGCUCAACAUAGCGUGGCAAAGUGGCUCUGUCUAGACUGCC [C15U G33C G36U]	0
GGCAGAGCUCAACAUAGCGUGGCAAAGUGGCUUUGGCUAGUCUGCC [C15U G33U A41U]	0.16
GGCAGAGCUCAACAUAGCGUGGCAAAGUGGCUUUGCCUAGACAGCC [C15U G33U G36C U43A]	0.01

Variant	self-cleavage
GGCAGAGCUCAACAUAGCGUGGCAAAGUGGCUGUAGGUAGACUGCC [C15U G35A C37G]	0.05
GGCAGAGCUCAACAUAGCGUGGCAAAGUGGCUGUAGUUAGAAUGCC [C15U G35A C37U C42A]	0.01
GGCAGAGCUCAACAUAGCGUGGCAAAGUGGCUGUCCCUAGACUGAC [C15U G35C G36C C45A]	0.01
GGCAGAGCUCAACAUAGCGUGGCAAAGUGGCUGUUGCCAGACUGCC [C15U G35U U38C]	0.03
GGCAGAGCUCAACAUAGCGUGGCAAAGUGGCUGUUGCGAGACUGCC [C15U G35U U38G]	0.05
GGCAGAGCUCAACAUAGCGUGGCAAAGUGGCUGUGCCUAGAUUGCG [C15U G36C C42U C46G]	0.02
GGCAGAGCUCAACAUAGCGUGGCAAAGUGGCUGUGUCUAGACUGCU [C15U G36U C46U]	0.05
GGCAGAGCUCAACAUAGCGAGGCAAAGUGGCUGUGGCUAGAGUGCC [C15U U20A C42G]	0.03
GGCAGAGCUCAACAUAGCGCGGCAAAGUGGCUGUGGCUGGACUGCC [C15U U20C A39G]	0.05
GGCAGAGCUCAACAUAGCGCGGCAAAGUGGCUGUGGUUAGACUGCC [C15U U20C C37U]	0.09
GGCAGAGCUCAACAUAGCGCGGCAAAGUGGCUAGGUCUAGACUGCC [C15U U20C G33A U34G G36U]	0.04
GGCAGAGCUCAACAUAGCGGGGGAAUGUGGCUGUGGCUAGACUGCC [C15U U20G C23G A26U]	0.15
GGCAGAGCUCAACAUAGCGUGGCAAAGAGGCUGUGGAUAGACUGCC [C15U U28A C37A]	0.11
GGCAGAGCUCAACAUAGCGUGGCAAAGCGUCGGUGGCUAGACUGCC [C15U U28C G30U U32G]	0.47
GGCAGAGCUCAACAUAGCGUGGCAAAGCGGCUUUGGCUAGACUGCC [C15U U28C G33U]	0.61
GGCAGAGCUCAACAUAGCGUGGCAAAGUGGCAGUGGCUAGACUGAC [C15U U32A C45A]	0.05
GGCAGAGCUCAACAUAGCGUGGCAAAGUGGCAGGGGCUAGACUGCU [C15U U32A U34G C46U]	0.01
GGCAGAGCUCAACAUAGCGUGGCAAAGUGGCUGUGGCAAGAAUGCC [C15U U38A C42A]	0.15
